This is one part of the list.
Tests used:
Assay in all cases: glycan array binding signal (z-score within array); higher = stronger binding
Settings in all cases: glycan notation: IUPAC condensed, linker removed
Fuc(a1-2)Gal = molecular target: Fuc(a1-2)Gal
Procedure, shortened: (§1)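 Glycan array data were curated from 3228 arrays in the Consortium for Functional Glycomics database and kept only where the protein sequence was available. Glycan names were converted to IUPAC-condensed notation, and columns mapping to the same glycan were averaged. The binding signal is a within-array Z-score, averaged across arrays of the same protein sequence at different concentrations or buffers and across linkers. Negative Z-scores can be read as non-binding.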

Fuc(a1-2)Gal(b1-3)GalNAc = molecular target: Fuc(a1-2)Gal(b1-3)GalNAc
Procedure, shortened: as §1

[1] = molecular target: Fuc(a1-2)Gal(b1-3)GalNAc(b1-3)Gal
Procedure, shortened: as §1

[2] = molecular target: Fuc(a1-2)Gal(b1-3)GalNAc(b1-3)Gal(a1-4)Gal(b1-4)Glc
Procedure, shortened: as §1

[3] = molecular target: Fuc(a1-2)Gal(b1-3)GalNAc(b1-4)[Neu5Ac(a2-3)]Gal(b1-4)Glc
Procedure, shortened: as §1

Fuc(a1-2)Gal(b1-3)GlcNAc = molecular target: Fuc(a1-2)Gal(b1-3)GlcNAc
Procedure, shortened: as §1

[4] = molecular target: Fuc(a1-2)Gal(b1-3)GlcNAc(b1-3)Gal(b1-4)Glc
Procedure, shortened: as §1

[5] = molecular target: Fuc(a1-2)Gal(b1-3)[Fuc(a1-4)]GlcNAc
Procedure, shortened: as §1

Fuc(a1-2)Gal(b1-4)Glc = molecular target: Fuc(a1-2)Gal(b1-4)Glc
Procedure, shortened: as §1

Fuc(a1-2)Gal(b1-4)GlcNAc = molecular target: Fuc(a1-2)Gal(b1-4)GlcNAc
Procedure, shortened: as §1

[6] = molecular target: Fuc(a1-2)Gal(b1-4)GlcNAc(b1-3)Gal(b1-4)GlcNAc
Procedure, shortened: as §1

[7] = molecular target: Fuc(a1-2)Gal(b1-4)GlcNAc(b1-3)Gal(b1-4)GlcNAc(b1-3)Gal(b1-4)GlcNAc
Procedure, shortened: as §1

[8] = molecular target: Fuc(a1-2)Gal(b1-4)[Fuc(a1-3)]GlcNAc
Procedure, shortened: as §1

[9] = molecular target: Fuc(a1-2)Gal(b1-4)[Fuc(a1-3)]GlcNAc(b1-3)Gal(b1-4)[Fuc(a1-3)]GlcNAc
Procedure, shortened: as §1

[10] = molecular target: Fuc(a1-2)Gal(b1-4)[Fuc(a1-3)]GlcNAc(b1-3)Gal(b1-4)[Fuc(a1-3)]GlcNAc(b1-3)Gal(b1-4)[Fuc(a1-3)]GlcNAc
Procedure, shortened: as §1

Fuc(a1-2)GlcNAc = molecular target: Fuc(a1-2)GlcNAc
Procedure, shortened: as §1

Fuc(a1-2)[Gal(a1-3)]Gal = molecular target: Fuc(a1-2)[Gal(a1-3)]Gal
Procedure, shortened: as §1

[11] = molecular target: Fuc(a1-2)[Gal(a1-3)]Gal(b1-3)GlcNAc
Procedure, shortened: as §1

[12] = molecular target: Fuc(a1-2)[Gal(a1-3)]Gal(b1-4)Glc
Procedure, shortened: as §1

[13] = molecular target: Fuc(a1-2)[Gal(a1-3)]Gal(b1-4)GlcNAc
Procedure, shortened: as §1

[14] = molecular target: Fuc(a1-2)[Gal(a1-3)]Gal(b1-4)[Fuc(a1-3)]GlcNAc
Procedure, shortened: as §1

[15] = molecular target: Fuc(a1-2)[Gal(a1-4)]Gal(b1-4)GlcNAc
Procedure, shortened: as §1

[16] = molecular target: Fuc(a1-2)[GalNAc(a1-3)]Gal
Procedure, shortened: as §1

[17] = molecular target: Fuc(a1-2)[GalNAc(a1-3)]Gal(b1-3)GlcNAc
Procedure, shortened: as §1

[18] = molecular target: Fuc(a1-2)[GalNAc(a1-3)]Gal(b1-4)Glc
Procedure, shortened: as §1

[19] = molecular target: Fuc(a1-2)[GalNAc(a1-3)]Gal(b1-4)GlcNAc
Procedure, shortened: as §1

[20] = molecular target: Fuc(a1-2)[GalNAc(a1-3)]Gal(b1-4)[Fuc(a1-3)]GlcNAc
Procedure, shortened: as §1

[21] = molecular target: Fuc(a1-2)[GalNAc(a1-4)]Gal(b1-4)GlcNAc
Procedure, shortened: as §1

[22] = molecular target: Fuc(a1-2)[GalNAc(b1-3)]Gal
Procedure, shortened: as §1

Fuc(a1-3)GlcNAc = molecular target: Fuc(a1-3)GlcNAc
Procedure, shortened: as §1

B1: F17bG (Escherichia coli), Q47200 (protein)
chain: MTNFYKVFLAVFILVCCNISHAVVSFIGSTENDVGPSQGSYSSTHAMDNLPFVYNTGYNIGYQNANVWRIGGGFCVGLDGKVDLPVVGSLDGQSIYGLTEEVGLLIWMGDTNYSRGTAMSGNSWENVFSGWCVGNYLSTQGLSVHVRPVILKRNSSAQYSVQKTSIGSIRMRPYNGSSAGSVQTTVNFSLNPFTLNDTVTSCRLLTPSAVNVSLAAISAGQLPSSGDEVVAGTTSLKLQCDAGVTVWATLTDATTPSNRSDILTLTGASTATGVGLRIYKNTDSTPLKFGPDSPVKGNENQWQLSTGTETSPSVRLYVKYVNTGEGINPGTVNGISTFTFSYQ
glycan array binding signal (z-score) (Fuc(a1-2)Gal): -0.621 | glycan array binding signal (z-score) (Fuc(a1-2)Gal(b1-3)GalNAc): -0.606 | glycan array binding signal (z-score) [1]: -0.486 | glycan array binding signal (z-score) [2]: -0.546 | glycan array binding signal (z-score) [3]: -0.371 | glycan array binding signal (z-score) (Fuc(a1-2)Gal(b1-3)GlcNAc): -0.591 | glycan array binding signal (z-score) [4]: -0.54 | glycan array binding signal (z-score) [5]: -0.669 | glycan array binding signal (z-score) (Fuc(a1-2)Gal(b1-4)Glc): -0.674 | glycan array binding signal (z-score) (Fuc(a1-2)Gal(b1-4)GlcNAc): -0.624 | glycan array binding signal (z-score) [6]: -0.65 | glycan array binding signal (z-score) [7]: -0.525 | glycan array binding signal (z-score) [8]: -0.545 | glycan array binding signal (z-score) [9]: -0.635 | glycan array binding signal (z-score) [10]: -0.549 | glycan array binding signal (z-score) (Fuc(a1-2)GlcNAc): -0.636 | glycan array binding signal (z-score) (Fuc(a1-2)[Gal(a1-3)]Gal): -0.551 | glycan array binding signal (z-score) [11]: -0.644 | glycan array binding signal (z-score) [12]: -0.576 | glycan array binding signal (z-score) [13]: -0.346 | glycan array binding signal (z-score) [14]: -0.631 | glycan array binding signal (z-score) [15]: -0.657 | glycan array binding signal (z-score) [16]: -0.609 | glycan array binding signal (z-score) [17]: -0.567 | glycan array binding signal (z-score) [18]: -0.624 | glycan array binding signal (z-score) [19]: -0.579 | glycan array binding signal (z-score) [20]: -0.58 | glycan array binding signal (z-score) [21]: -0.634 | glycan array binding signal (z-score) [22]: -0.63 | glycan array binding signal (z-score) (Fuc(a1-3)GlcNAc): -0.645

From the supplement of paper PMC8728848
